# Measurements as given in the supplement of paper PMC8728848.
# The other results are listed elsewhere or left out.
# B1: Lmo1413 (Listeria monocytogenes), Q8Y783 (protein)
# chain: MKHAKKSLFTFIIFMTILSITFNPFSAKAAPLMLNLPAPQVDQLYIGDDYITGKLQQEVPMHYPGNAAYVLFNNKQYNITDYTVENDVNFRLKLPKTLEAGDTLNYFTITGNVLDPVAYPGQESYKLAGPFSPIEKANIQVNYVDETNQTLATSDTLSGKLGETYTTSPKAIDGYQVKETPTNATGTYTTNTETIQINYVYEKTAVEGANVSVEYINEATNESIAPTETLSGKIGTTFQAEVKEIDGYELSQVPSNQSGTYTDQTQSVIFKYKKITTPDEVAKDVTVTYKDTKGNQLADPVILKGDIGSTFETEAKSFKGYKLTKTPSNHSSVFTSDSQEVEYVYSKDDAVITPPVTPVNPDKPIINPVKPVNPATSTVPNKNISKKNTTKTVNQTGKTSTALQLPKTGDSENNLPLIIGVSLLISGVYIFTTRRKRVK
# Assays:
# Assay in all cases: glycan array binding signal (z-score within array); higher = stronger binding
# Settings in all cases: glycan notation: IUPAC condensed, linker removed
# [1] = molecular target: Gal(b1-3)GalNAc(a1-3)[Fuc(a1-2)]Gal(b1-4)GlcNAc
# Procedure, shortened: (§1)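 The binding signal is a Z-score computed within each array. Data were drawn from 3228 arrays in the Consortium for Functional Glycomics database, restricted to those with a known protein sequence. Scores were averaged over arrays of the same protein sequence at different concentrations or buffers, and over linkers, and negative values can be taken as non-binding.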
# [2] = molecular target: Gal(b1-3)GalNAc(b1-3)Gal(a1-4)Gal(b1-4)Glc
# Procedure, shortened: as §1
# [3] = molecular target: Gal(b1-3)GalNAc(b1-4)Gal(b1-4)Glc
# Procedure, shortened: as §1
# [4] = molecular target: Gal(b1-3)GalNAc(b1-4)[Neu5Ac(a2-3)]Gal(b1-4)Glc
# Procedure, shortened: as §1
# Gal(b1-3)GlcNAc = molecular target: Gal(b1-3)GlcNAc
# Procedure, shortened: as §1
# [5] = molecular target: Gal(b1-3)GlcNAc(a1-6)Gal(b1-4)GlcNAc
# Procedure, shortened: as §1
# [6] = molecular target: Gal(b1-3)GlcNAc(b1-2)Man(a1-3)[Gal(b1-3)GlcNAc(b1-2)Man(a1-6)]Man(b1-4)GlcNAc(b1-4)GlcNAc
# Procedure, shortened: as §1
# [7] = molecular target: Gal(b1-3)GlcNAc(b1-2)Man(a1-3)[Gal(b1-3)GlcNAc(b1-2)Man(a1-6)]Man(b1-4)GlcNAc(b1-4)[Fuc(a1-6)]GlcNAc
# Procedure, shortened: as §1
# [8] = molecular target: Gal(b1-3)GlcNAc(b1-3)Gal(b1-3)GlcNAc
# Procedure, shortened: as §1
# [9] = molecular target: Gal(b1-3)GlcNAc(b1-3)Gal(b1-4)Glc
# Procedure, shortened: as §1
# [10] = molecular target: Gal(b1-3)GlcNAc(b1-3)Gal(b1-4)GlcNAc
# Procedure, shortened: as §1
# [11] = molecular target: Gal(b1-3)GlcNAc(b1-3)Gal(b1-4)GlcNAc(b1-6)[Gal(b1-3)GlcNAc(b1-3)]Gal(b1-4)Glc
# Procedure, shortened: as §1
# [12] = molecular target: Gal(b1-3)GlcNAc(b1-3)Gal(b1-4)[Fuc(a1-3)]GlcNAc(b1-6)[Gal(b1-3)GlcNAc(b1-3)]Gal(b1-4)Glc
# Procedure, shortened: as §1
# [13] = molecular target: Gal(b1-3)GlcNAc(b1-3)GalNAc
# Procedure, shortened: as §1
# [14] = molecular target: Gal(b1-3)GlcNAc(b1-6)Gal(b1-4)GlcNAc
# Procedure, shortened: as §1
# [15] = molecular target: Gal(b1-3)[Fuc(a1-4)]GlcNAc
# Procedure, shortened: as §1
# [16] = molecular target: Gal(b1-3)[Fuc(a1-4)]GlcNAc(b1-2)Man(a1-3)[Gal(b1-3)[Fuc(a1-4)]GlcNAc(b1-2)Man(a1-6)]Man(b1-4)GlcNAc(b1-4)GlcNAc
# Procedure, shortened: as §1
# [17] = molecular target: Gal(b1-3)[Fuc(a1-4)]GlcNAc(b1-2)Man(a1-3)[Gal(b1-3)[Fuc(a1-4)]GlcNAc(b1-2)Man(a1-6)]Man(b1-4)GlcNAc(b1-4)[Fuc(a1-6)]GlcNAc
# Procedure, shortened: as §1
# [18] = molecular target: Gal(b1-3)[Fuc(a1-4)]GlcNAc(b1-3)Gal(b1-3)[Fuc(a1-4)]GlcNAc
# Procedure, shortened: as §1
# [19] = molecular target: Gal(b1-3)[Fuc(a1-4)]GlcNAc(b1-3)Gal(b1-4)GlcNAc
# Procedure, shortened: as §1
# [20] = molecular target: Gal(b1-3)[Fuc(a1-4)]GlcNAc(b1-3)Gal(b1-4)[Fuc(a1-3)]GlcNAc
# Procedure, shortened: as §1
# [21] = molecular target: Gal(b1-3)[GlcNAc(b1-6)]GalNAc
# Procedure, shortened: as §1
# [22] = molecular target: Gal(b1-3)[Neu5Ac(a2-6)]GalNAc
# Procedure, shortened: as §1
# [23] = molecular target: Gal(b1-3)[Neu5Ac(a2-6)]GlcNAc(b1-6)Gal(b1-4)Glc
# Procedure, shortened: as §1
# [24] = molecular target: Gal(b1-3)[Neu5Ac(b2-6)]GalNAc
# Procedure, shortened: as §1
# [25] = molecular target: Gal(b1-4)GalNAc(a1-3)[Fuc(a1-2)]Gal(b1-4)GlcNAc
# Procedure, shortened: as §1
# [26] = molecular target: Gal(b1-4)GalNAc(b1-3)[Fuc(a1-2)]Gal(b1-4)GlcNAc
# Procedure, shortened: as §1
# Gal(b1-4)Glc = molecular target: Gal(b1-4)Glc
# Procedure, shortened: as §1
# Gal(b1-4)Glc6S = molecular target: Gal(b1-4)Glc6S
# Procedure, shortened: as §1
# Gal(b1-4)GlcNAc = molecular target: Gal(b1-4)GlcNAc
# Procedure, shortened: as §1
# [27] = molecular target: Gal(b1-4)GlcNAc(a1-6)Gal(b1-4)GlcNAc
# Procedure, shortened: as §1
# [28] = molecular target: Gal(b1-4)GlcNAc(b1-2)Man(a1-3)Man(b1-4)GlcNAc(b1-4)GlcNAc
# Procedure, shortened: as §1
# [29] = molecular target: Gal(b1-4)GlcNAc(b1-2)Man(a1-3)[Gal(b1-4)GlcNAc(b1-2)Man(a1-6)]Man(b1-4)GlcNAc(b1-4)GlcNAc
# Procedure, shortened: as §1
# [30] = molecular target: Gal(b1-4)GlcNAc(b1-2)Man(a1-3)[Gal(b1-4)GlcNAc(b1-2)Man(a1-6)]Man(b1-4)GlcNAc(b1-4)[Fuc(a1-6)]GlcNAc
# Procedure, shortened: as §1
# [31] = molecular target: Gal(b1-4)GlcNAc(b1-2)Man(a1-3)[GlcNAc(b1-2)Man(a1-6)]Man(b1-4)GlcNAc(b1-4)GlcNAc
# Procedure, shortened: as §1
# [32] = molecular target: Gal(b1-4)GlcNAc(b1-2)Man(a1-3)[Man(a1-6)]Man(b1-4)GlcNAc(b1-4)GlcNAc
# Procedure, shortened: as §1
# [33] = molecular target: Gal(b1-4)GlcNAc(b1-2)Man(a1-6)Man(b1-4)GlcNAc(b1-4)GlcNAc
# Procedure, shortened: as §1
# [34] = molecular target: Gal(b1-4)GlcNAc(b1-2)Man(a1-6)[GlcNAc(b1-2)Man(a1-3)]Man(b1-4)GlcNAc(b1-4)GlcNAc
# Procedure, shortened: as §1
# [35] = molecular target: Gal(b1-4)GlcNAc(b1-2)Man(a1-6)[Man(a1-3)]Man(b1-4)GlcNAc(b1-4)GlcNAc
# Procedure, shortened: as §1
# [36] = molecular target: Gal(b1-4)GlcNAc(b1-2)[Gal(b1-4)GlcNAc(b1-4)]Man(a1-3)[Gal(b1-4)GlcNAc(b1-2)Man(a1-6)]Man(b1-4)GlcNAc(b1-4)GlcNAc
# Procedure, shortened: as §1
# [37] = molecular target: Gal(b1-4)GlcNAc(b1-2)[Gal(b1-4)GlcNAc(b1-4)]Man(a1-3)[Gal(b1-4)GlcNAc(b1-2)[Gal(b1-4)GlcNAc(b1-6)]Man(a1-6)]Man(b1-4)GlcNAc(b1-4)GlcNAc
# Procedure, shortened: as §1
# [38] = molecular target: Gal(b1-4)GlcNAc(b1-3)Gal(b1-3)GlcNAc
# Procedure, shortened: as §1
# [39] = molecular target: Gal(b1-4)GlcNAc(b1-3)Gal(b1-4)Glc
# Procedure, shortened: as §1
# [40] = molecular target: Gal(b1-4)GlcNAc(b1-3)Gal(b1-4)GlcNAc
# Procedure, shortened: as §1
# [41] = molecular target: Gal(b1-4)GlcNAc(b1-3)Gal(b1-4)GlcNAc(b1-3)Gal(b1-4)GlcNAc
# Procedure, shortened: as §1
binder,measurement,setting,value
B1,glycan array binding signal (z-score),[1],-0.029
same,glycan array binding signal (z-score),[2],-0.2
same,glycan array binding signal (z-score),[3],0.709
same,glycan array binding signal (z-score),[4],-0.142
same,glycan array binding signal (z-score),Gal(b1-3)GlcNAc,0.02
same,glycan array binding signal (z-score),[5],0.622
same,glycan array binding signal (z-score),[6],-0.218
same,glycan array binding signal (z-score),[7],-0.242
same,glycan array binding signal (z-score),[8],-0.215
same,glycan array binding signal (z-score),[9],0.543
same,glycan array binding signal (z-score),[10],-0.088
same,glycan array binding signal (z-score),[11],-0.197
same,glycan array binding signal (z-score),[12],-0.158
same,glycan array binding signal (z-score),[13],-0.164
same,glycan array binding signal (z-score),[14],0.436
same,glycan array binding signal (z-score),[15],0.021
same,glycan array binding signal (z-score),[16],1.29
same,glycan array binding signal (z-score),[17],0.486
same,glycan array binding signal (z-score),[18],-0.139
same,glycan array binding signal (z-score),[19],-0.133
same,glycan array binding signal (z-score),[20],0.001
same,glycan array binding signal (z-score),[21],0.217
same,glycan array binding signal (z-score),[22],0.182
same,glycan array binding signal (z-score),[23],-0.113
same,glycan array binding signal (z-score),[24],2.02
same,glycan array binding signal (z-score),[25],0.26
same,glycan array binding signal (z-score),[26],0.144
same,glycan array binding signal (z-score),Gal(b1-4)Glc,0.007
same,glycan array binding signal (z-score),Gal(b1-4)Glc6S,0.199
same,glycan array binding signal (z-score),Gal(b1-4)GlcNAc,-0.099
same,glycan array binding signal (z-score),[27],0.12
same,glycan array binding signal (z-score),[28],-0.199
same,glycan array binding signal (z-score),[29],-0.24
same,glycan array binding signal (z-score),[30],-0.264
same,glycan array binding signal (z-score),[31],-0.192
same,glycan array binding signal (z-score),[32],-0.229
same,glycan array binding signal (z-score),[33],-0.247
same,glycan array binding signal (z-score),[34],-0.269
same,glycan array binding signal (z-score),[35],-0.244
same,glycan array binding signal (z-score),[36],-0.188
same,glycan array binding signal (z-score),[37],-0.254
same,glycan array binding signal (z-score),[38],-0.238
same,glycan array binding signal (z-score),[39],-0.055
same,glycan array binding signal (z-score),[40],-0.146
same,glycan array binding signal (z-score),[41],-0.045
